According to PubChem BioAssay AID686979 (National Center for Advancing Translational Sciences (NCATS), 2013):
Among all 420,000 compounds or so, about 50,000 (12%) were called active. The shares of active, inactive and inconclusive entries below differ from those in the screen. Calls come from the whole dose curve; as a rule, active = well fitted inhibition curve with a large enough effect; inconclusive = small, poorly fitted or top-dose-only effect; inactive = flat fitted curve, though single readings scatter. No potency is given beside an inconclusive call; the fits are too rough.

Assay: qHTS for Inhibitors of human tyrosyl-DNA phosphodiesterase 1 (TDP1): qHTS in cells in presence of CPT; note: nearly all actives have a fitted effect of over 55% in size
Conditions: chicken DT40 Tdp1-/-;hTDP1 cells + 20 nM CPT, ATP luminescence, 48 h; series mostly up to 46.2 µM
How it was run: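 Chicken DT40 Tdp1-/- cells complemented with human TDP1, 400 cells/well, exposed to compounds plus 20 nM camptothecin for at least 48 h at 37 C; viability read as ATP content by CellTiter-Glo luminescence.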
Potency is the fitted concentration of half-maximal effect; tags give direction and shape of the fitted curve.

SMILES | Potency
Cc1nn(C(C)C(=O)N2CCCCC2)c(=O)c2c1sc1ccccc12 (stereo not given) | inconclusive [inhibitor, single point]
COC(=O)c1cc(S(=O)(=O)Nc2cccc(OC)c2)cn1C | inconclusive [inhibitor, partial curve]
O=C(Nc1ccccc1Br)C1CC(=O)N(c2ccc3c4c(cccc24)CC3)C1 (stereo not given) | active: 23.1 µM
CC(C)CN1C(=O)N(c2ccc(Cl)cc2)C(C)(O)CC1(C)C (stereo not given) | inconclusive [inhibitor, single point]
CCCn1c(C(O)c2ccc(OC)cc2)nc2ccccc21 (stereo not given) | inconclusive [inhibitor, single point]
Cc1c(Cc2ccccc2)c(=O)oc2cc(OCC(=O)N3CCC(C(N)=O)CC3)ccc12 | inconclusive [inhibitor, single point]
COc1ccc(Br)cc1/C=N/NC(=O)c1ccc(COc2ccc3c(c2)CCC3)o1 | inactive
CC(=O)NC(c1ccccc1)c1nc(-c2ccc3ccccc3c2)cs1 (stereo not given) | active: 16.4 µM
Cc1cn(CC(=O)NCC2CCCO2)c(=O)[nH]c1=O (stereo not given) | inactive
COc1ccc(CN(CCC(c2ccccc2)C2CCOC(C)(C)C2)C(C)=O)cc1 (stereo not given) | inconclusive [inhibitor, single point]
COc1ccc(C2CC(c3ccc([N+](=O)[O-])cc3)=NN2C(=O)c2ccccc2)cc1OC (stereo not given) | inconclusive [inhibitor, single point]
O=C(CCn1nnc2ccccc21)Nc1nnc(Cc2ccccc2)s1 | inconclusive [inhibitor, partial curve]
COc1ccccc1CNC(=O)CCCCn1c(=O)c2ccccc2n(CC(=O)Nc2cc(Cl)ccc2C)c1=O | active: 18.4 µM
O=C(NCC1CCN(Cc2ccccc2Cl)CC1)Nc1cccc(Cl)c1 | inconclusive [inhibitor, partial curve, poor fit]
Cc1ccc(COC(=O)CN2C(=O)NC3(CCCC3)C2=O)cc1 | inconclusive [inhibitor, single point]
Oc1cccc(C=NCc2ccccc2)c1O | inconclusive [inhibitor, single point]
CCCCCC(O)c1cccc(OCc2ccc3ccccc3n2)c1 (stereo not given) | inconclusive [inhibitor, single point]
O=C(Nc1ccc(Br)cn1)c1cccc2c1-c1ccccc1C2=O | active: 4.11 µM
COc1cc(-c2n[nH]c(=S)n2Cc2ccccc2)cc(OC)c1OC | inactive
Cc1nnc2ccc(-c3cccc(NC(=O)c4ccc(Br)o4)c3)nn12 | inconclusive [inhibitor, single point]
CC(=O)c1cccc(NC(=O)N2CCC(NC(=O)C34CC5CC(CC(C5)C3)C4)CC2)c1 | inactive
N#CC(=C1C=CC(=NO)C(Cl)=C1)c1ccc(Cl)cc1 | active: 4.61 µM
O=C(NC(=S)NNC(=O)c1cccs1)c1ccco1 | inconclusive [inhibitor, single point]

SMILES | Potency
Cc1ccc(S(=O)(=O)N2CCN(C(=O)n3ccnc3)CC2)cc1 | active: 0.651 µM
COc1ccccc1C(=O)NCC(=O)Nc1ccccc1 | inconclusive [inhibitor, full curve, poor fit]
O=c1c2[nH]c3ccccc3c2nc(SCc2cccc(F)c2)n1-c1ccccc1 | inconclusive [inhibitor, single point]
CN(CC(=O)Nc1ccccc1Cl)CC(=O)Nc1ccccc1[N+](=O)[O-] | inconclusive [inhibitor, partial curve]
COc1ccc(Nc2ccc(C(F)(F)F)cc2[N+](=O)[O-])cn1 | inactive
O=C(Nc1ccc(SC(F)F)cc1)c1cccc2nc3ccccc3nc12 | inactive
Cc1cc(-c2nnc(CCC(=O)N(C)C(C)c3cccs3)o2)no1 (stereo not given) | inactive
CCOc1ccccc1NC(=O)C1CCCN(S(=O)(=O)c2cccc3nsnc23)C1 (stereo not given) | inconclusive [inhibitor, single point]
COc1cc2ccccc2cc1C(=O)Nc1ccccc1N1CCN(S(C)(=O)=O)CC1 | active: 20.6 µM
COc1ccc2c(c1)c1c(c(=O)n(-c3ccccc3C)c(=O)n1CC(=O)Nc1c(C)cccc1C)n2C | active: 7.31 µM
Cc1ccccc1Nc1nn2c(=O)c3ccc(C(=O)N4CCCC(C)C4)cc3nc2s1 (stereo not given) | active: 14.6 µM
Cc1ccc(CNC(=O)CCS(=O)(=O)c2ccc3c(c2)CC(C)N3C(=O)C2CC2)o1 (stereo not given) | inconclusive [inhibitor, single point]
COCCCNC(NC(=O)c1ccc(C)cc1)C(Cl)(Cl)Cl (stereo not given) | inconclusive [inhibitor, partial curve]
O=C(CN(Cc1ccco1)C(=O)CNS(=O)(=O)c1ccc(Cl)cc1)NCc1ccc(F)cc1 | inconclusive [inhibitor, single point]
CC(C)N1CCc2c(sc(NC(=O)CCc3ccccc3)c2C(N)=O)C1 | inactive
COc1ccc(-c2nc(NC(=O)c3ccc(OCC(=O)Nc4ccc(F)cc4)c(OC)c3)sc2C)cc1 | inconclusive [inhibitor, partial curve]
CCOc1ccc(N2C(=O)CC(SCC(=O)O)C2=O)cc1 (stereo not given) | inactive
CCc1c(C)nc2cc(-c3ccc(OC)cc3)[nH]n2c1=O | active: 20.6 µM
COc1ccc(NC(=O)Cn2c(SCc3ccc(C)cc3)nc3cccnc32)c(OC)c1 | active: 14.6 µM
CN(Cc1ccno1)Cc1cn(C)nc1-c1ccc(Oc2ccccc2)cc1 | inconclusive [inhibitor, single point]
O=C(CCN1C(=O)[C@@H]2Cc3ccccc3CN2C1=O)NCc1ccc(Cl)cc1 | inconclusive [inhibitor, single point]
C[C@@]12CC(=O)NC1N(C(=O)c1cccc(C(F)(F)F)c1)C(c1ccccc1OC(=O)c1cccc(C(F)(F)F)c1)C2 (stereo not given in full) | inconclusive [inhibitor, single point]
